Assay results published in PubChem BioAssay (NCATS).
Inconclusive results, whose numbers are uncertain, are shown with a selection of clear calls. Potencies of inconclusive entries are left out as doubtful fits. Active and inactive are the calls of the source. The call rests on the fitted dose curve; in most records, active means well fitted inhibition curve with a large enough effect; inconclusive means small, poorly fitted or top-dose-only effect; inactive means no such curve, though single readings can be large or run the other way.

Experiment: qHTS Screen of the MIPE 4.0 Collection Against Ewings Sarcoma (TC71) (AID 1259253); further: nearly all actives have a fitted effect of over 40% in size
Procedure, shortened: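 After a 4 h attachment period in RPMI/5% FBS, cells were pin-dosed with test compounds; DMSO served as negative and 9.2 uM bortezomib (final) as positive control. Luminescent CellTiter-Glo signal at 48 h defined viability.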
Potency means the concentration at half of the fitted maximal effect; tags describe the fitted curve by direction and shape.

| Compound | Potency |
| --- | --- |
| Nc1ccc(S(=O)(=O)Nc2ncccn2)cc1 | inactive |
| COc1ccc(C2(C#N)CCC(C(=O)O)CC2)cc1OC1CCCC1 (configuration not stated) | inactive |
| NC(=NCCCCCCN=C(N)N=C(N)Nc1ccc(Cl)cc1)N=C(N)Nc1ccc(Cl)cc1 | active: 4.18 µM |
| CCOCC(O)COc1ccc(NC(=O)CC[S+](C)C)cc1 (configuration not stated) | inactive |
| Cc1c(CN2CCN(S(C)(=O)=O)CC2)sc2c(N3CCOCC3)nc(-c3cnc(N)nc3)nc12 | active: 0.0662 µM |
| c1cncc(CN2CCC(n3ncc4c(N5CCOCC5)nc(-c5ccc6[nH]ccc6c5)nc43)CC2)c1 | active: 13.2 µM |
| CN(C)c1nc(N(C)C)nc(N(C)C)n1 | inconclusive [inhibitor, partial curve, poor fit] |
| CCN(CC)CCNC(=O)c1ccc2nc(-c3ccccc3)c(-c3ccc(CN4CCC(n5c(=O)[nH]c6ccccc65)CC4)cc3)nc2c1 | active: 23.5 µM |
| CC(C)OC(=O)[C@H](C)N[P@](=O)(OC[C@H]1O[C@@H](n2ccc(=O)[nH]c2=O)[C@](C)(F)[C@H]1O)Oc1ccccc1 | inactive |
| CC(C)(F)C[C@H](N[C@@H](c1ccc(-c2ccc(S(C)(=O)=O)cc2)cc1)C(F)(F)F)C(=O)NC1(C#N)CC1 | inconclusive [inhibitor, partial curve] |
| CCc1c(O)cc(O)c(C(=O)c2ccc(OCCN3CCOCC3)c(OC)c2)c1CC(=O)N(CCOC)CCOC | active: 2.35 µM |
| CNC(=O)c1cccc(-c2ccc3c(N4CCOC[C@H]4C)nc(N4CCOC[C@H]4C)nc3n2)c1 | active: 0.0662 µM |
| Cn1cc(-c2ccc3ncc(Cc4ccc5ncccc5c4)n3n2)cn1 | inactive |
| Nc1nc(Cl)nc2c1ncn2[C@@H]1O[C@H](CO)[C@@H](O)[C@H]1F | inconclusive [inhibitor, full curve, poor fit] |
| C[C@H]1COc2c(N3CCN(C)CC3)c(F)cc3c(=O)c(C(=O)O)cn1c23 | inactive |
| OC[C@H]1OC(O)C[C@@H](O)[C@H]1O (some centres not stated) | inactive |

| Compound | Potency |
| --- | --- |
| CC(C)c1noc(N2CCC(COc3ccc(-c4ccc(S(C)(=O)=O)cc4)nc3)CC2)n1 | inactive |
| CCN1CCN(c2ccc(Nc3cc(N(C)C(=O)Nc4c(Cl)c(OC)cc(OC)c4Cl)ncn3)cc2)CC1 | inconclusive [inhibitor, single point] |
| COc1nc(N)nc2c1ncn2[C@@H]1O[C@H](CO)[C@@H](O)[C@@H]1O | inactive |
| CNC1CCC(N(Cc2cccc(-c3ccncc3)c2)C(=O)c2sc3ccccc3c2Cl)CC1 (configuration not stated) | inconclusive [inhibitor, single point] |
| Cn1cc(-c2ccncc2)c(-c2ccc(OCc3ccc4ccccc4n3)cc2)n1 | active: 16.6 µM |
| CN[C@H]1[C@@H](O[C@@H]2[C@H](O[C@@H]3[C@@H](O)[C@@H](O)[C@@H](N=C(N)N)[C@@H](O)[C@@H]3N=C(N)N)O[C@H](C)[C@@]2(O)C=O)O[C@@H](CO)[C@@H](O)[C@H]1O | inconclusive [inhibitor, partial curve, poor fit] |
| CN1CCCN(C(=O)c2cccc(-c3ccc(C=C4C(=O)Nc5ccc(Cl)cc54)o3)c2)CC1 | active: 16.6 µM |
| FC(F)(F)c1ccc(C=Cc2nc(COc3ccc(CCCCn4ccnn4)cc3)co2)cc1 | inconclusive [inhibitor, full curve] |
| CCCCCOC(=O)Nc1nc(=O)n([C@@H]2O[C@H](C)[C@@H](O)C2O)cc1F (some centres not stated) | inconclusive [inhibitor, partial curve, poor fit] |
| C=C[C@@H]1CN2CCC1C[C@H]2[C@H](O)c1ccnc2ccc(OC)cc12 (some centres not stated) | inactive |
| Oc1ccc([C@@H]2Oc3ccc(O)cc3[C@@H]3CCC[C@@H]32)cc1 | active: 26.4 µM |
| O=c1[nH]cnc2[nH]ncc12 | inactive |
| CCC(C(=O)O)C1CCC(C)C(C(C)C(O)C(C)C(=O)C(CC)C2OC3(C=CC(O)[C@@]4(CC[C@](C)(C5CC[C@@](O)(CC)C(C)O5)O4)O3)C(C)CC2C)O1 (some centres not stated) | active: 1.48 µM |
| S=P(N1CC1)(N1CC1)N1CC1 | active: 16.6 µM |
| CN1CCN(c2c(F)cc3c(=O)c(C(=O)O)cn(CCF)c3c2F)CC1 | inactive |
| N#CC(=C(N)Sc1ccc(N)cc1)c1ccccc1C(F)(F)F | active: 10.5 µM |
